According to PubChem BioAssay AID504832 (National Center for Advancing Translational Sciences (NCATS), 2011):
The campaign covered roughly 310,000 compounds. About 18,000 (5.8%) were called active. Inconclusive results, whose numbers are uncertain, are shown with a selection of clear calls. Calls come from the whole dose curve; as a rule, active = well fitted inhibition curve with a large enough effect; inconclusive = small, poorly fitted or top-dose-only effect, or another doubt; inactive = no such curve, though single readings can be large or run the other way. No potency is given beside an inconclusive call; the fits are too rough.

Experiment: Primary qHTS for delayed death inhibitors of the malarial parasite plastid, 48 hour incubation
Conditions: P. falciparum luciferase growth in erythrocytes; series mostly up to 28.7 µM
Summary of the method: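 First compound was added to culture medium, then infected red cells at 0.1% parasitemia and 2% hematocrit (final). After incubation at 37 C under 5% CO2, luciferase detection reagent was dispensed and light output recorded.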
Potency is the fitted concentration of half-maximal effect; tags give direction and shape of the fitted curve.

Structure (SMILES) | Potency
CC(=O)c1cccc(NCC(=O)Nc2cc(S(=O)(=O)N3CCCCC3)ccc2C)c1 | inconclusive [inhibitor, partial curve]
Cc1ccc2nsnc2c1NC(=O)c1ccc([N+](=O)[O-])o1 | inconclusive [inhibitor, partial curve, poor fit]
Cc1ccc(C2(c3ccc(C)cc3)NC(=O)N(Cc3c(C)noc3C)C2=O)cc1 | inconclusive [inhibitor, single point]
O=C(NC1CCCc2ccccc21)C1CCC(CNc2c(N3CCOCC3)c(=O)c2=O)CC1 (stereo unspecified) | inactive
CC(C)(C)NCC(O)COc1ccc(NC(=O)NC2CCCCC2)cc1 (stereo unspecified) | inconclusive [inhibitor, single point]
COc1ccc(OCc2cc(C(=O)NC3CCc4ccccc43)no2)c(Cl)c1 (stereo unspecified) | inactive
CCCn1c(SCc2cc(=O)oc3ccc4ccccc4c23)n[nH]c1=O | inconclusive [inhibitor, partial curve, poor fit]
COc1cccc(OC)c1C(=O)OCC(=O)N(c1ccccc1)C1CCCCC1 | inconclusive [inhibitor, single point]
COC(=O)c1ccc2c(=O)[nH]c(COC(=O)c3c(-c4ccccc4)noc3C)nc2c1 | inactive
COc1cccc(CN2CCC(n3nccc3NC(=O)CCOc3ccccc3)CC2)c1 | inconclusive [inhibitor, partial curve, poor fit]
C/C(CC(C)(C)c1ccccc1)=N\NS(=O)(=O)c1ccccc1 | inactive
O=C(Cn1nc(Cl)nc1Cl)c1ccccc1 | inactive
COc1ccccc1C(=O)NCCN1CCN(c2ccccc2)CC1 | inactive
O=C(Nc1nnc2n1CCS2)c1ccc(Br)o1 | inactive
Cc1noc(C)c1COc1ccccc1C(=O)N(C)CC(=O)Nc1ccc(F)c(F)c1F | inconclusive [inhibitor, single point]
CCN(CC)C(=O)c1cccnc1 | inactive
CCCOc1ccccc1C1CC(=O)Nc2cc3c(cc21)OCCO3 (stereo unspecified) | inconclusive [inhibitor, single point]
COc1cccc(OC)c1C(=O)Nc1nc2ccc([N+](=O)[O-])cc2s1 | inconclusive [inhibitor, single point]
O=[N+]([O-])c1ccccc1N/N=C\c1ccccc1F | inactive
COc1ccc(NCc2nnc(SCC(=O)NCc3ccccc3)n2-c2ccccc2OC)cc1 | inconclusive [inhibitor, single point]
COC(=O)CNC(c1ccccc1)c1cc(C)ccc1NC(=O)c1cccc(Cl)c1 (stereo unspecified) | inconclusive [inhibitor, single point]
CC(=O)c1cc(Cl)ccc1OCC(=O)Nc1cccc(S(=O)(=O)N2CCCC2)c1 | inconclusive [inhibitor, partial curve]
Cc1ccc(NP(=O)(c2ccccc2)c2nc3ccccc3s2)cc1 (stereo unspecified) | inactive

Structure (SMILES) | Potency
CCOC(=O)c1ccc(Nc2nc(C(=O)OCC)nc3ccccc23)cc1 | active: 9.28 µM
Cc1ccc(/C=C2\CCn3c2nc2cc(C(=O)O)ccc2c3=O)c(C)c1 | inconclusive [inhibitor, partial curve, poor fit]
Cn1ccnc1Sc1nc2ccccc2nc1NS(=O)(=O)c1ccccc1 | inconclusive [inhibitor, single point]
CCC(=O)Nc1cccc(-n2nnnc2SCC(=O)c2ccc(C)c(C)c2)c1 | inactive
CC(=O)Nc1nonc1-c1nc2ccccc2n1Cc1ccccc1 | active: 11.7 µM
Cc1ccc(C)c(CN2C(=O)c3ccccc3S(=O)(=O)c3ccc(C(=O)N4CCN(C)CC4)cc32)c1 | inconclusive [inhibitor, partial curve]
CC(=O)c1cccc(OCC(O)CN2CCN(C(=O)c3ccco3)CC2)c1 (stereo unspecified) | inactive
CC(=O)c1ccc(S(=O)(=O)NCCC(=O)OCC(=O)N(Cc2ccccc2)C(C)(C)C)cc1 | inconclusive [inhibitor, single point]
COC(=O)Nc1sc2c(c1C(N)=O)CCC(C)C2 (stereo unspecified) | inactive
COc1ccccc1CC(=O)Nc1ccc(S(=O)(=O)N2CC(C)CC(C)C2)cc1 (stereo unspecified) | inconclusive [inhibitor, partial curve]
Cc1cc(C(=O)CSc2ncccn2)c(C)n1-c1cccc(F)c1 | inactive
CCOc1ccccc1NC(=O)CSc1nc(=O)n(Cc2ccccn2)c2c1CCC2 | inconclusive [inhibitor, single point]
CC(C)OC(=O)/C(=C\c1ccccc1)NC(=O)c1ccccc1 | inactive
Cc1ccc(NC(=O)CN(C)CC(=O)Nc2cccc(F)c2)cc1S(=O)(=O)N1CCCCCC1 | inactive
CCCCCN(C(=O)CCC(=O)OC(C)C(=O)c1ccc(Cl)cc1)c1c(N)n(CCCC)c(=O)[nH]c1=O (stereo unspecified) | inactive
COc1cccc2c3c(c(C)nc12)CCN3c1ccccc1 | inconclusive [inhibitor, single point]
Clc1ccc(C2=C3CCCCn4c(-c5ccccc5)c[n+](c43)C2)cc1 | active: 10.4 µM
COC(=O)[C@H](CC(C)C)NC(=O)N1CCN(c2cccc(C(F)(F)F)c2)CC1 | inconclusive [inhibitor, single point]
O=C(COc1cccc2c1CCN(Cc1ccc(Cl)cc1)C2=O)N1CCOCC1 | inconclusive [inhibitor, partial curve, poor fit]
Cc1ccc(S(=O)(=O)N2CCOCC2)cc1C(=O)N(C)CCOc1ccc(Cl)cc1 | inconclusive [inhibitor, single point]
O=C1c2ccccc2C(=O)c2c1ccc1c(=O)n(-c3ccccc3)[nH]c21 | inactive
CCCNC(=O)c1c(N)n(-c2cccc(OC)c2)c2nc3ccccc3nc12 | inconclusive [inhibitor, single point]
CCOC(=O)c1c(C)[nH]c(C(=O)CN2C(=O)NC3(CCCC3)C2=O)c1C | inactive
